# Data as given in PubChem BioAssay (NCATS).
# This list was built around the results that the source calls inconclusive (neither active nor inactive); the mix of calls is not that of the screen. Potencies of inconclusive entries are left out as doubtful fits. Activity calls are given as the source filed them. Calls follow the shape of the dose curve; as a rule, active = well fitted inhibition curve with a large enough effect; inconclusive = small, poorly fitted or top-dose-only effect; inactive = flat fitted curve, though single readings scatter. Residues, ends and D or L forms follow the SMILES beside them.
# Experiment: BET inhibitor-based combinations targeting novel dependencies in MECOM-rearranged (r) AML: AML-191 cell line (AID 2202236; also: nearly all actives have a fitted effect of over 35% in size)
# Details: AML-191 viability, CellTiter-Glo luminescence, 48 h; series mostly up to 46 µM
# Procedure, shortened: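 Each compound was tested at eleven concentrations on cells seeded at 500/well. After two days' incubation, ATP-based luminescence reported viability; responses relative to DMSO and blank wells yielded AUC and cell-line-centred Z-AUC.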
# Potency is read from the fitted curve at half-maximal effect; tags tell the direction and shape of the fitted curve.
row,Structure (SMILES),Potency
1,CCOc1cc(N2CCC(O)CC2)ccc1Nc1ncc2c(n1)N(C)c1ccccc1C(=O)N2C,"inconclusive [inhibitor, partial curve]"
2,CC(C)c1c(C(=O)Nc2ccccc2)c(-c2ccccc2)c(-c2ccc(F)cc2)n1CC[C@@H](O)C[C@@H](O)CC(=O)O,"inconclusive [inhibitor, partial curve]"
3,c1cncc(CN2CCC(n3ncc4c(N5CCOCC5)nc(-c5ccc6[nH]ccc6c5)nc43)CC2)c1,"inconclusive [inhibitor, full curve]"
4,CN(C)C1CCN(C(=O)c2ccc(NC(=O)Nc3nc(N4CCOCC4)nc(N4CCOCC4)n3)cc2)CC1,"inconclusive [inhibitor, full curve]"
5,COc1cc(/C=C/C(=O)CC(=O)/C=C/c2ccc(O)c(OC)c2)ccc1O,active: 16600 nM
6,Oc1c(Cl)cc(Cl)c2cccnc12,active: 8330 nM
7,COC(=O)[C@H](Cc1ccccc1)NC(=O)[C@@H](N)CC(=O)O (H-Asp-Phe-OMe),inactive
8,CC[C@H]1OC(=O)[C@H](C)[C@@H](O[C@H]2C[C@@](C)(OC)[C@@H](O)[C@H](C)O2)[C@H](C)[C@@H](O[C@@H]2O[C@H](C)C[C@H](N(C)C)[C@H]2O)[C@](C)(O)C[C@@H](C)C(=O)[C@H](C)[C@@H](O)[C@]1(C)O,inactive
9,CCCOc1ccc2nc(NC(=O)OC)[nH]c2c1,active: 263 nM
10,Nc1n[n+]([O-])c2ccccc2[n+]1[O-],active: 18600 nM
11,O=c1ccn([C@@H]2O[C@H](CO)[C@H](O)[C@@H]2F)c(=O)[nH]1,inactive
12,O=C(Cc1ccccc1)Nc1nnc(CCSCCc2nnc(NC(=O)Cc3ccccc3)s2)s1,"inconclusive [inhibitor, full curve]"
13,COc1cc(OC)c(/C=C/S(=O)(=O)Cc2ccc(OC)c(NCC(=O)O)c2)c(OC)c1,active: 235 nM
14,CC(=O)Nc1nc(C)c(-c2ccc(Cl)c(S(=O)(=O)NCCO)c2)s1,active: 5250 nM
15,O=C(Nc1cnn2ccc(N3CCC[C@@H]3c3cc(F)ccc3F)nc12)N1CC[C@H](O)C1,"inconclusive [inhibitor, full curve]"
16,CCN[C@H]1C[C@H](C)S(=O)(=O)c2sc(S(N)(=O)=O)cc21,inactive
17,CC12CC3CC(C)(C1)CC(N)(C3)C2,inactive
18,CO[C@@H]1COCC[C@@H]1N[C@@H]1CC[C@@](C(=O)N2CCc3ncc(C(F)(F)F)cc3C2)(C(C)C)C1,inactive
19,Cn1cc(-c2[nH]c3cc(NC(=O)[C@H](N)C4CCCCC4)cc4c3c2C=NNC4=O)cn1,"inconclusive [inhibitor, full curve]"
20,COC1CCC(C(=O)c2ccc3nc4c(cc3c2)CCCO4)CC1 (stereo unspecified),inactive
21,CN[C@H]1CCc2cc(OC)c(OC)c(OC)c2-c2ccc(OC)c(=O)cc21,active: 105 nM
22,C[C@@H](Oc1ccc2[nH]nc(/C=C/c3cnn(CCO)c3)c2c1)c1c(Cl)cncc1Cl,active: 833 nM
23,N#Cc1ccc(C(c2ccc(C#N)cc2)n2cncn2)cc1,inactive
24,O=C(NO)c1ccc(C2=Nc3ccccc3Oc3ccccc32)cc1,active: 3320 nM
25,Fc1ccc(CNc2ncnc3ccc(F)cc23)cc1,"inconclusive [inhibitor, partial curve]"
26,C=CC(=O)N1CC/C(=C\c2ccc(F)c([N+](=O)[O-])c2)C(=O)/C(=C/c2ccc(F)c([N+](=O)[O-])c2)C1,active: 209 nM
